The antibiotic and cytotoxicity screens of Wong et al. (2023)
Some of the results follow.

Key:
HSkMC = human skeletal muscle cells; assay: cytotoxicity call (relative viability < 0.9); conditions: 10 µM
S. aureus RN4220 = assay: growth inhibition call (relative growth <= 0.2); conditions: 50 µM

| SMILES | cytotoxicity call (HSkMC) | growth inhibition call (S. aureus RN4220) |
| --- | --- | --- |
| NC(=O)NS(=O)(=O)c1ccc(N)cc1 | inactive | inactive |
| CC(C)NC(=O)N(C)C[C@H]1Oc2cc(C#Cc3cccc(F)c3)ccc2S(=O)(=O)N([C@@H](C)CO)C[C@H]1C | inactive | inactive |
| CCCC[C@@H](O)c1ccccc1 | inactive | inactive |
| N=C1CCCN1Cc1[nH]c(=O)[nH]c(=O)c1Cl | inactive | inactive |
| CO[C@H]1O[C@H](CO)[C@@H](OC(=O)Nc2ccccc2-c2ccccc2)[C@H](OC(=O)Nc2ccc3c(c2)OCO3)[C@H]1OC(=O)Nc1ccc2c(c1)OCO2 | inactive | inactive |
| Cc1noc(C)c1S(=O)(=O)Nc1ccc2c(c1)C(=O)N([C@H](C)CO)C[C@H](C)[C@@H](CN(C)C(=O)Nc1ccccc1)OCCCC[C@H](C)O2 | inactive | inactive |
| C[C@@H]1CCCCO[C@H](CN(C)C(=O)c2ccccc2)[C@@H](C)CN([C@H](C)CO)C(=O)c2cc(NS(=O)(=O)c3ccc(F)cc3)ccc2O1 | inactive | inactive |
| Cc1ccc(S(=O)(=O)N(C)C[C@@H]2Oc3ccc(N(C)C)cc3CC(=O)N([C@@H](C)CO)C[C@H]2C)cc1 | inactive | inactive |
| CCc1nc2ccccc2c(N)c1C | inactive | inactive |
| Cc1ccc(S(=O)(=O)Nc2ccc3c(c2)C(=O)N([C@@H](C)CO)C[C@H](C)[C@H](CN(C)Cc2ccc4c(c2)OCO4)OCCCC[C@H](C)O3)cc1 | inactive | inactive |
| CC(C)(C)S(=O)N1Cc2cc(C(=O)Nc3ccc(-c4ccccc4)cc3)nc(-c3cccc(C#CCC4CCCC4)c3)c2[C@@H]1CCO (stereo not given in full) | inactive | inactive |
| C[C@H](CO)N1C[C@H](C)[C@@H](CN(C)S(C)(=O)=O)OCCCC[C@H](C)Oc2ccc(NS(C)(=O)=O)cc2C1=O | inactive | inactive |
| Cn1c(=O)[nH]c2nnc(-c3ccccn3)nc2c1=O | inactive | inactive |
| C[C@@H]1CCCCO[C@@H](CN(C)C(=O)NC2CCCCC2)[C@@H](C)CN([C@H](C)CO)C(=O)c2cc(NC(=O)c3ccncc3)ccc2O1 | inactive | inactive |
| CN(C)CCOC(c1ccccc1)c1ccccc1.Cl | inactive | inactive |
| C[C@@H]1CCCCO[C@H](CN(C)S(=O)(=O)c2ccccc2)[C@@H](C)CN([C@@H](C)CO)C(=O)c2cc(NC(=O)Nc3cccc4ccccc34)ccc2O1 | inactive | inactive |
| C[C@@H]1CN([C@@H](C)CO)C(=O)c2cc(NC(=O)Cn3cnnn3)ccc2O[C@H]1CN(C)Cc1ccc(C(=O)Nc2ccccc2N)cc1 | inactive | inactive |
| COc1cccc(S(=O)(=O)N2C[C@@H](O)COC[C@@H]3O[C@@H](CC(=O)N4CCOCC4)CC[C@H]32)c1 | inactive | inactive |
| COc1ccc(S(=O)(=O)Nc2ccc3c(c2)C(=O)N([C@H](C)CO)C[C@H](C)[C@H](CN(C)C(=O)Nc2ccc4c(c2)OCO4)OCCCC[C@H](C)O3)cc1 | inactive | inactive |
| COc1ccc(S(=O)(=O)Nc2ccc3c(c2)C(=O)N([C@@H](C)CO)C[C@@H](C)[C@@H](CN(C)S(=O)(=O)c2ccc(Cl)cc2)OCCCC[C@H](C)O3)cc1 | inactive | inactive |
| COc1ccc(-c2cc(=O)c3c(O)c(OC)c(O[C@H]4O[C@H](CO[C@@H]5O[C@@H](C)[C@H](O)[C@@H](O)[C@H]5O)[C@@H](O)[C@H](O)[C@H]4O)cc3o2)cc1 | inactive | inactive |
| Cc1ccc(S(=O)(=O)Nc2ccc3c(c2)C(=O)N([C@@H](C)CO)C[C@@H](C)[C@@H](CN(C)C(=O)CCC(F)(F)F)OCCCC[C@@H](C)O3)cc1 | inactive | inactive |
| CCc1nn(C)c2c(=O)c(=O)c2n(C)[nH]1 | inactive | inactive |
| O=C(N/N=C/[C@H](O)[C@@H](O)[C@H](O)CO)c1ccccc1O | inactive | inactive |
| Cc1ccc(-c2ccc3c(c2)O[C@@H](CN(C)C(=O)NC(C)C)[C@H](C)CN([C@@H](C)CO)S3(=O)=O)cc1 | inactive | inactive |
| Cc1ccc(S(=O)(=O)N(C)C[C@H]2OCCCC[C@H](C)Oc3ccc(NS(=O)(=O)c4ccc(F)cc4)cc3C(=O)N([C@@H](C)CO)C[C@@H]2C)cc1 | inactive | inactive |
| COC(=O)c1c[nH]c(=S)n1C | inactive | inactive |
| C[C@@H]1CN([C@@H](C)CO)C(=O)c2cc(NS(=O)(=O)c3cn(C)cn3)ccc2O[C@@H](C)CCCCO[C@H]1CN(C)C(=O)Nc1cccc2ccccc12 | active | inactive |
| O=C(O)c1cc(O)c(O)c(O)c1 | inactive | inactive |
| Cc1ccc(S(=O)(=O)N(C)C[C@H]2Oc3cc(C#Cc4ccccc4)ccc3S(=O)(=O)N([C@@H](C)CO)C[C@@H]2C)cc1 | inactive | inactive |
